Data as given in PMC6919601, “Identification of Plasmodium dipeptidyl aminopeptidase allosteric inhibitors by high throughput screening” (PLoS ONE, 2019).
Among all 110,000 compounds or so, about 230 (0.21%) showed an effect of 50% or more. The list shows a part of the results.

target: DPAP1 (Plasmodium falciparum, UniProt Q8IIJ9); assay: primary screen, percent inhibition; read by cleavage of a fluorogenic dipeptide substrate; higher = more effect of the substance; design: species or system P. falciparum D10 trophozoite lysates; single well
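Note: 30 min substrate incubation versus DMSO and 10 µM JCP410 controls.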

Chain of DPAP1 (Q8IIJ9 whole entry, looked up): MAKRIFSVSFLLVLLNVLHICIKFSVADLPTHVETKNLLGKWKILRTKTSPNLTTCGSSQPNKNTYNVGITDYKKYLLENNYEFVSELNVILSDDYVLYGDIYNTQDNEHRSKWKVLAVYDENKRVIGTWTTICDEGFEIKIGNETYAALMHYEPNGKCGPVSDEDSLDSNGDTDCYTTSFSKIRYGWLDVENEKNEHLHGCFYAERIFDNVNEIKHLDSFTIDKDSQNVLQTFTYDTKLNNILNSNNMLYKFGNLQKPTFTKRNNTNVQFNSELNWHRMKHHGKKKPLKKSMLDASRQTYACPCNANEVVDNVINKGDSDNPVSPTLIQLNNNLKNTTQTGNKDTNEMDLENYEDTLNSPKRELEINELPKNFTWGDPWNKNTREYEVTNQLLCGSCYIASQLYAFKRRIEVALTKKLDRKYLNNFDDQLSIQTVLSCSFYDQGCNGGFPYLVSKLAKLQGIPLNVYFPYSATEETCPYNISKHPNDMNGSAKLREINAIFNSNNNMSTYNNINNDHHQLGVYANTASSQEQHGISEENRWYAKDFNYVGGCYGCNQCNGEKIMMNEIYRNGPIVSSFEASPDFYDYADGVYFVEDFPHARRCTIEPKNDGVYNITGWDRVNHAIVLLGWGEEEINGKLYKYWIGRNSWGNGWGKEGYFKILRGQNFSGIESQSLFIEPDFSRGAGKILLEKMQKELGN

SMILES	% Inhibition @ 10 uM
Cc1cccc(NCN2C(=O)C3CCCCC3C2=O)c1 (stereo not drawn)	-2.98%
CC1=C(C(=O)Nc2ccccc2)C(c2cccs2)C(C#N)=C(SCC(=O)c2cccs2)N1 (stereo not drawn)	5.66%
CSc1ncc(C#N)c(N)n1	-5.74%
COc1ccc2ncc(C(=O)c3ccc(C)c(C)c3)c(O)c2c1	1.5%
O=C(Nc1cccc2ccccc12)NC1CCCc2ccccc21 (stereo not drawn)	-3.78%
Cc1cccc(S(=O)Cc2ccc(C(=O)NC3CCN(Cc4ccccc4)CC3)o2)c1 (stereo not drawn)	-0.434%
O=C(CN1CCN(c2ccc3ccccc3n2)CC1)c1c[nH]c2ccccc12	0.266%
CC(=O)C1=C(C)OC(N)=C(C#N)C1c1cccc(Cl)c1 (stereo not drawn)	-3.13%
O=C(Nc1ccccc1[N+](=O)[O-])NS(=O)(=O)c1ccccc1Cl	-10.3%
COc1ccc(C2CC3=Nc4ccccc4NC(c4cccnc4)C3=C(O)C2)cc1OC (stereo not drawn)	3.05%
CCc1nc2ccccc2n2c(-c3cccc(C)c3)c3c(=O)n(C)c(=O)n(C)c3c12	-5.1%
O=C(NCc1cccc(C(F)(F)F)c1)c1ccc2c(c1)OCO2	-1.27%
CCc1ccc(CN2CCN(C3CCN(Cc4ccccc4)CC3)CC2)cc1	3.79%
CCCc1nn(-c2ccc(F)cc2)c(O)c1/C=N/CCCOCC	-17.1%
CC(C)(C)c1c(O)n2c3[n+](c1=O)CCCN3CCC2	12.9%
CS(=O)(=O)C1=NSC2=NC(=O)/C(=C\c3cccn3-c3cccc(C(F)(F)F)c3)C(=N)N21	6.63%
COc1cc(OC)cc(-c2cc3nc(C)c(CCC(=O)NC(C)CCc4ccco4)c(C)n3n2)c1 (stereo not drawn)	4.54%
COc1cc(C(=O)NC(Cc2ccccc2)c2nc3ccccc3[nH]2)cc(OC)c1OC (stereo not drawn)	-2.74%
COC(=O)C1=C(C)NC(=O)NC1c1ccc(Cl)cc1 (stereo not drawn)	-2.18%
CC(C)Cn1cc(C(=O)NCC2COc3ccccc3O2)c2c3ccccc3n(C)c2c1=O (stereo not drawn)	-5.77%
Cc1ccc(-n2nc(C)c3c(C)c(CCC(=O)N4CCC(C)CC4)c(C)nc32)cc1	4.14%

SMILES	% Inhibition @ 10 uM
CCOC(=O)C1=C(CS(=O)(=O)c2ccc(C)cc2)NC(=O)NC1c1ccc(F)c(F)c1 (stereo not drawn)	-0.431%
Cc1cc2ncn(C(=O)N3CCCCCC3)c2cc1C	0.83%
Cc1ccc(C(=O)Nc2nnc(SCc3ccccc3)s2)cc1C	1.58%
COCCNC(=O)c1c(NC(=O)c2ccccc2Cl)sc2c1CCCC2	-1.52%
N#CC1=C(N)OC2=C(CCCC2)C1c1ccccc1Cl (stereo not drawn)	2.7%
CC1=CC2=NC(=O)/C(=C\c3cc(C)n(Cc4ccccc4)c3C)C(=N)N2O1	0.317%
Cn1ncc2c(N3CCC(Cc4ccccc4)CC3)ncnc21	-0.0781%
CC(C)Cc1nn2cc(-c3ccc(F)cc3)nc2s1	0.758%
CC(=O)Nc1nc2nc(-c3ccccc3)cc(O)n2n1	-1.56%
CCCOC(=O)Nc1sc2c(c1C(=O)OCC)CCCC2	9.47%
CCN(Cc1ccccc1)S(=O)(=O)c1ccc(-c2ccc(O)nn2)o1	-4.99%
COc1ccc(OC)c(CN2CCN(Cc3ccco3)CC2)c1	-4.71%
COc1cc(CNc2ccc3c(c2)OCCO3)ccc1OCC(N)=O	-5.14%
CCC(C)c1ccc(NC(=O)CCC(=O)O)cc1 (stereo not drawn)	2.08%
O=C1C2C3CCC(O3)C2C(=O)N1c1nc[nH]n1 (stereo not drawn)	0.716%
Cc1ccc(C(=O)Nc2sc3c(c2C#N)C(C)(C)OC3(C)C)cc1	-2.63%
COc1cc(C2C(C#N)=C(N)Oc3[nH]nc(C)c32)ccc1COc1ccc(F)cc1 (stereo not drawn)	0.385%
CCN(CC)C(=O)C1C(=O)NC2(C)CC1c1ccccc1O2 (stereo not drawn)	-7.83%
O=C1NC(Nc2nccs2)(C(F)(F)F)C(=O)N1CCc1ccccc1 (stereo not drawn)	1.91%
COCCNS(=O)(=O)c1c(C)nc2sccn2c1=O	-9.75%
O=S(=O)(NCc1ccccc1)c1ccc(Cl)cc1	2.76%

SMILES	% Inhibition @ 10 uM
CC1CCN(S(=O)(=O)c2ccc(C(=O)N3CCN(Cc4ccccc4)CC3)cc2)CC1	-2.19%
Cc1ccnc(NC(=O)c2cccc(S(=O)(=O)N3CCOCC3)c2)c1	0.189%
CN1CCN(Cc2ccc(Br)s2)CC1	1.63%
O=C(Cn1cc(S(=O)(=O)N2CCCC2)c(S(=O)(=O)N2CCCC2)c1)Nc1nccs1	-1.54%
Cc1cccc(C(=O)Nc2ccc3oc(-c4cccnc4)nc3c2)c1	0.843%
Cc1ccc2c(c1)-c1c(cnn1CC(=O)NC1CCCC(C)C1C)CO2 (stereo not drawn)	-9.67%
Cc1cc(S(=O)(=O)NCc2cccnc2)ccc1F	0.727%
Cn1c(SCc2ccc(Cl)cc2)nc(=O)c2c1NC(=O)CC2c1cc(F)ccc1F (stereo not drawn)	-1.11%
C=CCSC1=C(C#N)C(c2cc(Br)c(O)c(OC)c2)CC(=O)N1 (stereo not drawn)	6.23%
COc1ccc(-c2cc(C(=O)NC(Cc3ccccc3)C(=O)O)c(C)o2)cc1OC (stereo not drawn)	-3.5%
CC1CN(S(=O)(=O)c2ccc(Cl)c(C(=O)Nc3ccc(O)cc3)c2)CC(C)O1 (stereo not drawn)	-8.59%
O=S(=O)(c1cccc2nsnc12)N1CCN(C(c2ccccc2)c2ccccc2)CC1	3.21%
O=[N+]([O-])c1ccc(SCCSc2ccc([N+](=O)[O-])cc2)cc1	0.505%
Cc1cc(C)cc(N(CC(=O)N2CCN(c3ccccc3F)CC2)S(C)(=O)=O)c1	9.62%
COc1ccc(/C(O)=C/C=N/c2ccc(F)cc2F)cc1OC	1.08%
COc1ccccc1OCC(=O)Nc1nc(-c2cccs2)c(NC(=O)c2ccccc2)s1	-7.02%
Cn1cnc2cc(NC(=O)c3ccco3)ccc21	-4.52%
CC1C=CC(C)[C@H](C(=O)O)[C@H]1C(=O)O (stereo partly drawn)	4.82%
CCOC(=O)c1nnn(-c2ccc(C)cc2C)c1C(=O)OCC	-1.58%
CCC(C)(C(=O)Nc1c(C)cccc1C)N(C)C(=O)CN1C(=O)c2ccccc2C1=O (stereo not drawn)	6.61%
Cc1nn(CC(=O)NCCC2=CCCCC2)c(=O)c2cc3ccccc3n12	1.38%
